Molecular target: hEGFR-6-his (SinoBiological) (human, UniProt P00533 fragment)
Assay: ELISA

Kd: 0.158 nM
B1: IgFD-11(anti-CD3/EGFR) (bispecific antibody)
chain 1: EVQLVESGGGLVQPGGSLRLSCAASGFTFNTYAMNWVRQAPGKGLEWVARIRSKYNNYATYYADSVKDRFTISRDDSKNTLYLQMNSLRAEDTAVYYCVRHGNFGNSYVSWFAYWGQGTLVTVSSASTKGPSVFPLAPSSKSTSGGTAALGCLVKDYFPEPVTVSWNSGALTSGVHTFPAVLQSSGLYSLSSVVTVPSSSLGTQTYICNVNHKPSNTKVDKKV[letters of human IgG1 Fc with changes not shown]
chain 2: QAVVTQEPSLTVSPGGTVTLTCRSSTGAVTTSNYANWVQQKPDHLFRGLIGGTNKRAPGTPARFSGSLLGDKAALTISGAQPEDEAEYYCALWYSNLWVFGGGTKLTVLKRTVAAPSVFIFPPSDEQLKSGTASVVCLLNNFYPREAKVQWKVDNALQSGNSQESVTEQDSKDSTYSLSSTLTLSKADYEKHKVYACEVTHQGLSSPVTKSFNRGE[letters of human IgG1 Fc with changes not shown]GGSGGSGGGGSGGGGSDIQMTQSPSSLSASVGDRVTITCQASQDISNYLNWYQQKPGKAPKLLIYDASNLETGVPSRFSGSGSGTDFTFTISSLQPEDIATYFCQHFDHLPLAFGGGTKVEIKGGGGSGGGGSGGGGSQVQLQESGPGLVKPSETLSLTCTVSGGSVSSGDYYWTWIRQSPGKGLEWIGHIYYSGNTNYNPSLKSRLTISIDTSKTQFSLKLSSVTAADTAIYYCVRDRVTGAFDIWGQGTMVTVSS

Source: patent US20220089722A1 (published 2022)
